Assay results from the supplement of paper PMC8728848.
The list shows a part of the results.

Columns and labels:
Test in all cases: glycan array binding signal (z-score within array); higher = stronger binding
Settings in all cases: glycan notation: IUPAC condensed, linker removed
[1] = target: Gal(a1-4)Gal(b1-4)GlcNAc(b1-2)Man(a1-3)[Gal(a1-4)Gal(b1-4)GlcNAc(b1-2)Man(a1-6)]Man(b1-4)GlcNAc(b1-4)GlcNAc
Method in brief: (§1)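 The Consortium for Functional Glycomics database supplied 3228 glycan arrays, of which those lacking an available protein sequence were dropped. The binding signal, a within-array Z-score, was averaged across arrays of the same protein sequence and across linkers. Negative scores can be read as non-binding.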

[2] = target: Gal(a1-4)Gal(b1-4)GlcNAc(b1-3)Gal(b1-4)Glc
Method in brief: as §1

Gal(a1-4)GlcNAc = target: Gal(a1-4)GlcNAc
Method in brief: as §1

Gal(a1-6)Glc = target: Gal(a1-6)Glc
Method in brief: as §1

Gal(b1-2)Gal = target: Gal(b1-2)Gal
Method in brief: as §1

Gal(b1-3)Gal = target: Gal(b1-3)Gal
Method in brief: as §1

Gal(b1-3)Gal(b1-4)GlcNAc = target: Gal(b1-3)Gal(b1-4)GlcNAc
Method in brief: as §1

[3] = target: Gal(b1-3)Gal(b1-4)GlcNAc(b1-2)Man(a1-3)[Gal(b1-3)Gal(b1-4)GlcNAc(b1-2)Man(a1-6)]Man(b1-4)GlcNAc(b1-4)GlcNAc
Method in brief: as §1

Gal(b1-3)GalNAc = target: Gal(b1-3)GalNAc
Method in brief: as §1

[4] = target: Gal(b1-3)GalNAc(a1-3)[Fuc(a1-2)]Gal(b1-4)Glc
Method in brief: as §1

[5] = target: Gal(b1-3)GalNAc(a1-3)[Fuc(a1-2)]Gal(b1-4)GlcNAc
Method in brief: as §1

[6] = target: Gal(b1-3)GalNAc(b1-3)Gal(a1-4)Gal(b1-4)Glc
Method in brief: as §1

[7] = target: Gal(b1-3)GalNAc(b1-4)Gal(b1-4)Glc
Method in brief: as §1

[8] = target: Gal(b1-3)GalNAc(b1-4)[Neu5Ac(a2-3)]Gal(b1-4)Glc
Method in brief: as §1

Gal(b1-3)GlcNAc = target: Gal(b1-3)GlcNAc
Method in brief: as §1

[9] = target: Gal(b1-3)GlcNAc(a1-6)Gal(b1-4)GlcNAc
Method in brief: as §1

[10] = target: Gal(b1-3)GlcNAc(b1-2)Man(a1-3)[Gal(b1-3)GlcNAc(b1-2)Man(a1-6)]Man(b1-4)GlcNAc(b1-4)GlcNAc
Method in brief: as §1

[11] = target: Gal(b1-3)GlcNAc(b1-2)Man(a1-3)[Gal(b1-3)GlcNAc(b1-2)Man(a1-6)]Man(b1-4)GlcNAc(b1-4)[Fuc(a1-6)]GlcNAc
Method in brief: as §1

[12] = target: Gal(b1-3)GlcNAc(b1-2)[Gal(b1-3)GlcNAc(b1-6)]Man(a1-6)[Gal(b1-3)GlcNAc(b1-2)Man(a1-3)]Man(b1-4)GlcNAc(b1-4)GlcNAc
Method in brief: as §1

[13] = target: Gal(b1-3)GlcNAc(b1-3)Gal(b1-3)GlcNAc
Method in brief: as §1

[14] = target: Gal(b1-3)GlcNAc(b1-3)Gal(b1-4)Glc
Method in brief: as §1

[15] = target: Gal(b1-3)GlcNAc(b1-3)Gal(b1-4)GlcNAc
Method in brief: as §1

[16] = target: Gal(b1-3)GlcNAc(b1-3)Gal(b1-4)GlcNAc(b1-6)[Gal(b1-3)GlcNAc(b1-3)]Gal(b1-4)Glc
Method in brief: as §1

[17] = target: Gal(b1-3)GlcNAc(b1-3)Gal(b1-4)[Fuc(a1-3)]GlcNAc(b1-6)[Gal(b1-3)GlcNAc(b1-3)]Gal(b1-4)Glc
Method in brief: as §1

[18] = target: Gal(b1-3)GlcNAc(b1-3)GalNAc
Method in brief: as §1

[19] = target: Gal(b1-3)GlcNAc(b1-6)Gal(b1-4)GlcNAc
Method in brief: as §1

[20] = target: Gal(b1-3)[Fuc(a1-4)]GlcNAc
Method in brief: as §1

[21] = target: Gal(b1-3)[Fuc(a1-4)]GlcNAc(b1-2)Man(a1-3)[Gal(b1-3)[Fuc(a1-4)]GlcNAc(b1-2)Man(a1-6)]Man(b1-4)GlcNAc(b1-4)GlcNAc
Method in brief: as §1

[22] = target: Gal(b1-3)[Fuc(a1-4)]GlcNAc(b1-2)Man(a1-3)[Gal(b1-3)[Fuc(a1-4)]GlcNAc(b1-2)Man(a1-6)]Man(b1-4)GlcNAc(b1-4)[Fuc(a1-6)]GlcNAc
Method in brief: as §1

[23] = target: Gal(b1-3)[Fuc(a1-4)]GlcNAc(b1-3)Gal(b1-3)[Fuc(a1-4)]GlcNAc
Method in brief: as §1

[24] = target: Gal(b1-3)[Fuc(a1-4)]GlcNAc(b1-3)Gal(b1-4)GlcNAc
Method in brief: as §1

[25] = target: Gal(b1-3)[Fuc(a1-4)]GlcNAc(b1-3)Gal(b1-4)[Fuc(a1-3)]GlcNAc
Method in brief: as §1

[26] = target: Gal(b1-3)[GlcNAc(b1-6)]GalNAc
Method in brief: as §1

[27] = target: Gal(b1-3)[Neu5Ac(a2-6)]GalNAc
Method in brief: as §1

[28] = target: Gal(b1-3)[Neu5Ac(a2-6)]GlcNAc(b1-6)Gal(b1-4)Glc
Method in brief: as §1

[29] = target: Gal(b1-3)[Neu5Ac(b2-6)]GalNAc
Method in brief: as §1

Gal(b1-4)Gal = target: Gal(b1-4)Gal
Method in brief: as §1

[30] = target: Gal(b1-4)GalNAc(a1-3)[Fuc(a1-2)]Gal(b1-4)GlcNAc
Method in brief: as §1

[31] = target: Gal(b1-4)GalNAc(b1-3)[Fuc(a1-2)]Gal(b1-4)GlcNAc
Method in brief: as §1

Gal(b1-4)Glc = target: Gal(b1-4)Glc
Method in brief: as §1

Gal(b1-4)Glc6S = target: Gal(b1-4)Glc6S
Method in brief: as §1

Gal(b1-4)GlcNAc = target: Gal(b1-4)GlcNAc
Method in brief: as §1

[32] = target: Gal(b1-4)GlcNAc(a1-6)Gal(b1-4)GlcNAc
Method in brief: as §1

Gal(b1-4)GlcNAc(b1-2)Man = target: Gal(b1-4)GlcNAc(b1-2)Man
Method in brief: as §1

[33] = target: Gal(b1-4)GlcNAc(b1-2)Man(a1-3)Man(b1-4)GlcNAc(b1-4)GlcNAc
Method in brief: as §1

B1: XCL (Xerocomus chrysenteron) (protein)
chain: MSYSITLRVYQTNRDRGYFSIVEKTVWHFANGGTWSEANGAHTLTQGGSGTSGVLRFLSTKGERITVAVGVHNYKRWCDVVTGLKPDETALVINPQYYNNGGRDYVREKQLAEYSVTSAIGTKVEVVYTVAEGNNLEANVIFS
- glycan array binding signal (z-score) [1]: -0.32
- glycan array binding signal (z-score) [2]: -0.32
- glycan array binding signal (z-score) (Gal(a1-4)GlcNAc): -0.287
- glycan array binding signal (z-score) (Gal(a1-6)Glc): -0.302
- glycan array binding signal (z-score) (Gal(b1-2)Gal): -0.289
- glycan array binding signal (z-score) (Gal(b1-3)Gal): -0.301
- glycan array binding signal (z-score) (Gal(b1-3)Gal(b1-4)GlcNAc): -0.298
- glycan array binding signal (z-score) [3]: -0.319
- glycan array binding signal (z-score) (Gal(b1-3)GalNAc): 1.2
- glycan array binding signal (z-score) [4]: 1.42
- glycan array binding signal (z-score) [5]: 3.43
- glycan array binding signal (z-score) [6]: -0.328
- glycan array binding signal (z-score) [7]: -0.32
- glycan array binding signal (z-score) [8]: -0.321
- glycan array binding signal (z-score) (Gal(b1-3)GlcNAc): -0.297
- glycan array binding signal (z-score) [9]: -0.315
- glycan array binding signal (z-score) [10]: -0.294
- glycan array binding signal (z-score) [11]: -0.281
- glycan array binding signal (z-score) [12]: -0.292
- glycan array binding signal (z-score) [13]: -0.323
- glycan array binding signal (z-score) [14]: -0.31
- glycan array binding signal (z-score) [15]: -0.316
- glycan array binding signal (z-score) [16]: -0.316
- glycan array binding signal (z-score) [17]: -0.31
- glycan array binding signal (z-score) [18]: -0.286
- glycan array binding signal (z-score) [19]: -0.324
- glycan array binding signal (z-score) [20]: -0.267
- glycan array binding signal (z-score) [21]: -0.323
- glycan array binding signal (z-score) [22]: -0.183
- glycan array binding signal (z-score) [23]: -0.261
- glycan array binding signal (z-score) [24]: -0.311
- glycan array binding signal (z-score) [25]: -0.304
- glycan array binding signal (z-score) [26]: 1.25
- glycan array binding signal (z-score) [27]: 2.19
- glycan array binding signal (z-score) [28]: -0.3
- glycan array binding signal (z-score) [29]: 0.607
- glycan array binding signal (z-score) (Gal(b1-4)Gal): -0.322
- glycan array binding signal (z-score) [30]: -0.307
- glycan array binding signal (z-score) [31]: -0.307
- glycan array binding signal (z-score) (Gal(b1-4)Glc): -0.32
- glycan array binding signal (z-score) (Gal(b1-4)Glc6S): -0.322
- glycan array binding signal (z-score) (Gal(b1-4)GlcNAc): -0.322
- glycan array binding signal (z-score) [32]: -0.322
- glycan array binding signal (z-score) (Gal(b1-4)GlcNAc(b1-2)Man): -0.321
- glycan array binding signal (z-score) [33]: -0.259
